The full ranking holds about 1,800 sequences; the median of “median log2 fold change of GCK-ALFA target abundance (FLAG IP / Myc IP barcode read proportion)” is about 0.14, and the lowest 2% start at about -0.84. This is one part of the list.
T1: TRAF2, Q12933
T1 chain: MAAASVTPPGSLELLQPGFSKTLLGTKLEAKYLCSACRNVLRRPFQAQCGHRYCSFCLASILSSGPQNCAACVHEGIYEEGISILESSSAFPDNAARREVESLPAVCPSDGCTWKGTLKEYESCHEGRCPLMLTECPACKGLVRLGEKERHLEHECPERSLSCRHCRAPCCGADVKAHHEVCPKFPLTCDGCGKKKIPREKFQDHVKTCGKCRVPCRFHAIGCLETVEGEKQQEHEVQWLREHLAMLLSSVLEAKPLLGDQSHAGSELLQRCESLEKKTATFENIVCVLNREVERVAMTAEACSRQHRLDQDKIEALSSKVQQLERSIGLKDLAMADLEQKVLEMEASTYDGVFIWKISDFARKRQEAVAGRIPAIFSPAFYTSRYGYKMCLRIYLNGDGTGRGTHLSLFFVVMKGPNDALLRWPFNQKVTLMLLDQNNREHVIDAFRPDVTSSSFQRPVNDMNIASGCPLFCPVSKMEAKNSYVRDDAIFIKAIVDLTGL

B1: traf2_out_1_33_1032 (protein)
chain: SEAKERRTLRIANEAASRLYKVIREQLERIRALLAAGASLEEIEAAAEEARKEVEEKAEEILEEVEKTEDEETVNLVKSVLTSLKVIFDRELAELLAEAR
B2: traf2_out_11_104_637 (protein)
chain: LTREQAREFNDFAMAQEDQARAIAAALAAELAAAGETAAAARVNAALADSGAGISTFRNLLEDLLPELSPAAAAAAEAAIAELRALQKKVSDKLNELEKK
B3: traf2_out_20_3_2205 (protein)
chain: SELEEELEKELEEALKLLKEAAKLADEETKKRLEELIKRLKESRELSYDDRLVELSEIRAEVLRLAQEAKAKGNEELAKVLEEAAEALQRAMNLVYKIIE
B4: traf2_out_11_155_689 (protein)
chain: SKERELNNELVDETLAVGERLKAEIDAIAAEAAAAHPEHAERIAAVRAESARFSERTYAGRMAALFRELGLDEEAARVEALLARAQKEKNEILKRIEAKL
B5: traf2_out_17_178_1663 (protein)
chain: TKEEKRKEISELTDKLIDLAEEAADQFLALAKKEGDLSEEELAQIEQARRRGSANDVLALMKEWIPKLKNSEEAGKLLEEFEKKYRELSKKIAEAYKEYE
B6: traf2_out_17_178_1698 (protein)
chain: SKEEIRAKISELTDELIDLTDEYGTRLLAAARAEGVLTPEQLARLEAARASGSNRTFLATAEELLPASAASEELRALLEEFRAERRRLEKKIAEAYEKYE
B7: traf2_out_18_167_1840 (protein)
chain: EEEIREKREELMDRLVDLSEVKREARRALHALETDPAAVPAELEALEEEAKKVPELQPLVDAARAALEAGDREGLRAELEKLIEKAQKLMNETMKELEAL
B8: traf2_out_13_95_1063 (protein)
chain: SRETARKINELADKAEEEVLARLDAAKAALADDPAAVAALDEARRAAETRGISAAIHVLRQAKAANPALAAQWDALIAELEAIRRKLGEEVAKILKEEEE
B9: traf2_out_1_27_989 (protein)
chain: SDEEITERIREASRRIAEADLETALEIARELLRELYEEGLGDARMAAVTLITMMKTEEDAEALIEAAEETFRELGVPEEEIERLRRQMRTAYELLKEALA
B10: traf2_out_11_169_855 (protein)
chain: AEAERNRKINDFALELNDEAKEKLKKHALELAKKEGLDVEEVKKIFEKNKNKSLSALAAALIEYFKKKGKEDAAKEIEEKYEELKDEINKKMSAFLKELE
B11: traf2_out_20_3_2249 (protein)
chain: EELRKKAEEELEEIEKLLKRARPLLPPEDAAEAEELLEKAREAFKTDYTDALVYLSELRRLALERAQRARAAGDAETAALLEELAEAAQRALQYLYLIIE
B12: traf2_out_6_156_2403 (protein)
chain: TIEKIFEETLKKIRELVKKLAAASEEKKISYISKIAGTFYRGLQKLREAGASVEELKEFIERVLKELEKLLDEEGLDQSTKDLIISSITAVGEVALREAE
B13: traf2_out_13_95_1130 (protein)
chain: SRETAEKIMEIADEMLDKVLEILKELLKKFEKAGVGVEEIKEAIYLAEHQSINEAIKLLEELAKKYPEFKEELNKAIEEIKKLRREAGKKVAEILKEEKE
B14: traf2_out_20_3_2109 (protein)
chain: SELEAELKKELEAALKLLEEAAKLADPETAKVLRELAKRLKASESLSPTDRLVVVSEIRREVLRLQQEAEAAGNAELAAVLAAAADELNRAMNLLMKIIE
B15: traf2_out_3_89_2305 (protein)
chain: SMEREAKIEEMRKRMEAYIRGFEKSARFVAKQMIKEGYSLETIEGVLTAARNAIVDTLAEEAREAGLSEEDIKELTEEAKKELDKIVKEVVEEAKKKREE
B16: traf2_out_17_178_1727 (protein)
chain: SKEEILKEISEKADERLDVNREAVDRLRAIAEAEGVLTPELAARLDAVARNSNRYALEEVFEEVIARTSRAEEVEALLKETTEKLKELDKEISELVEKLE
B17: traf2_out_17_162_1604 (protein)
chain: SELEEKKKELLELLKELKKKLEELEKKLENIEKLSKEELTDLLVEASEARRKAREALEEIKKLKDELPEEEYEKLSTEFEELAEKFQRIANKLYEELEKK
B18: traf2_out_20_3_2253 (protein)
chain: EELRKKAEEALREVRALLEQAAPLLPAEDAAEARRLLEEAEEAFKTDYTDALVHVSALRRLALERAQRARAAGDAATAALLEQLAEAAQRLAHYLYLIIE
B19: traf2_out_13_26_1030 (protein)
chain: GMSPEELEEEEEKRMERLIEAANELADLRDKAVEAAKKDPEEARKLAEELRERLLEIAKDPEARSMALVQARRARLDFEALGREEEAALFEETIKEIEAL

Biological target: T1, TRAF2, Q12933
Test: median log2 fold change of GCK-ALFA target abundance (FLAG IP / Myc IP barcode read proportion) (log2 ratio); each designed protein is fused to an ALFA-tag nanobody in HEK293 cells to bring the named protein to FLAG-tagged glucokinase (GCK); Myc marks an untargeted standard; higher = target protein stabilised (more abundant)
Conditions: target protein: 3xFLAG-MCP-GCK-ALFA reporter; HEK293 landing pad (RPLP)
Procedure, shortened: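 The readout is target abundance, the per-binder median log2 ratio of FLAG to Myc barcode read proportions. It came from HEK293 landing-pad cells carrying a recombined ALFA-nanobody-fused binder library, induced with 2 μg mL^−1 doxycycline and transfected with a plasmid for a FLAG-tagged target and a Myc-tagged standard. After 48 h, lysates were immunoprecipitated with anti-FLAG and anti-Myc, and circular RNA barcodes were reverse transcribed, amplified and sequenced. Each barcode needed a proportion of at least 10^−7 in both replicates and each binder at least 3 barcodes per replicate, a pseudocount of 10^−6 was added, and the replicates were pooled.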

| Binder | median log2 fold change |
| --- | --- |
| B1 | -0.138 |
| B2 | 0.379 |
| B3 | 0.339 |
| B4 | -0.332 |
| B5 | 0.199 |
| B6 | 0.184 |
| B7 | 0.209 |
| B8 | 0.148 |
| B9 | 0.204 |
| B10 | -0.122 |
| B11 | 0.204 |
| B12 | -0.0332 |
| B13 | -0.433 |
| B14 | -0.126 |
| B15 | -0.651 |
| B16 | 0.127 |
| B17 | 0.458 |
| B18 | 0.257 |
| B19 | 0.297 |

Source: the supplement of paper PMC12632987
